Source: patent US20250326851A1 (Bayer, published 2025)
Where “and” joins values, the source holds several entries; their conditions need not be identical. Equal values may be shown once.

T1: mouse CCR8 on HEK293 cells (mouse, UniProt P56484 1-353)
T1 sequence (looked up): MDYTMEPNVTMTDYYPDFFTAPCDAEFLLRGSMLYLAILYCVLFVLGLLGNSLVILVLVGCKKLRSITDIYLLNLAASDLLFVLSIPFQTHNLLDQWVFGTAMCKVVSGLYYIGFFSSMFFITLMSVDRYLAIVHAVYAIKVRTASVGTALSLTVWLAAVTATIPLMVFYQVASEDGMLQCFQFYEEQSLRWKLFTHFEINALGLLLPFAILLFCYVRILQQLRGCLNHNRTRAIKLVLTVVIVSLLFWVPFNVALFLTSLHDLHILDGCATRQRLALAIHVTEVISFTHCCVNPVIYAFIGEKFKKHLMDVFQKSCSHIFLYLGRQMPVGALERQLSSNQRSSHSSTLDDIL


Legend:
[1] = biological target: T1, mouse CCR8 on HEK293 cells; experiment: cell-based or functional assay
[2] = biological target: T1, mouse CCR8 on HEK293 cells; experiment: cell-based or functional assay; remark: listed apart in the source
[3] = biological target: T1, mouse CCR8 on HEK293 cells; experiment: flow cytometry on murine CCR8-transfected HEK293 cells
Procedure: The binding properties of murine surrogate antibodies were assessed using flow cytometry on HEK293 cells ectopically expressing murine CCR8.

Row | ADCC EC50 (ng/mL) at 20 hours; mouse CCR8-expressing HEK293 cells, mouse NK cells [1] | ADCC EC50 (pM) at 20 hours; mouse CCR8-expressing HEK293 cells, mouse NK cells [1] | cumulative ADCP EC50 (ng/mL), 4 hours; mouse CCR8-expressing HEK293 cells, mouse M2 macrophages [2] | cumulative ADCP EC50 (ng/mL), 12 hours; mouse CCR8-expressing HEK293 cells, mouse M2 macrophages [2] | cumulative ADCP EC50 (pM), 4 hours; mouse CCR8-expressing HEK293 cells, mouse M2 macrophages [2] | cumulative ADCP EC50 (pM), 12 hours; mouse CCR8-expressing HEK293 cells, mouse M2 macrophages [2] | EC50 [3] | Binder
1 | 87.6 ng/mL | 584 pM | 68.6 ng/mL | 17 ng/mL | 475 pM | 118 pM | 5.58 nM and 0.805 µg/mL | TPP-14099 (antibody) chain 1: EVQLLESGGGLVQPGGSLRLSCAASGFTFSDYGVHWVRQAPGKGLEWVSGVSWNGSRTHYADSVKGRFTISRDNSKNTLYLQMNSLRAEDTAVYYCVTRGAWGQGTLVTVSS[skipping human IgG1 constant region] chain 2: QSVLTQPPSASGTPGQRVTISCSGSSFNIGSHFVYWYQQLPGTAPKLLIYKNNQRPSGVPDRFSGSKSGTSASLAISGLRSEDEADYYCAAWDDSLNGPVFGGGTKLTVLGQPKAAPSVTLFPPSSEELQANKATLVCLISDFYPGAVTVAWKADSSPVKAGVETTTPSKQSNNKYAASSYLSLTPEQWKSHRSYSCQVTHEGSTVEKTVAPTECS
2 | – | – | – | – | – | – | 2.47 nM and 0.357 µg/mL | TPP-18208 (aglycosylated) (antibody) chain 1: EVQLLESGGGLVQPGGSLRLSCAASGFTFSDYGVHWVRQAPGKGLEWVSGVSWNGSRTHYADSVKGRFTISRDNSKNTLYLQMNSLRAEDTAVYYCVTRGAWGQGTLVTVSS[skipping human IgG1 constant region with changes] chain 2: QSVLTQPPSASGTPGQRVTISCSGSSFNIGSHFVYWYQQLPGTAPKLLIYKNNQRPSGVPDRFSGSKSGTSASLAISGLRSEDEADYYCAAWDDSLNGPVFGGGTKLTVLGQPKAAPSVTLFPPSSEELQANKATLVCLISDFYPGAVTVAWKADSSPVKAGVETTTPSKQSNNKYAASSYLSLTPEQWKSHRSYSCQVTHEGSTVEKTVAPTECS
